Drawing on PubChem BioAssay AID1259371 (The Scripps Research Institute Molecular Screening Center, 2018), this text covers IC50 for one compound.

For the assay, the target named is Microphthalmia-associated transcription factor (Homo sapiens) (UniProt O75030). Kind of assay: MITF inhibitors, potency by titration, dose response, biochemical, AlphaScreen, human (AID 1259371). Conditions: AlphaScreen biochemical MITF assay, signal inhibition.

Each structure is given as a SMILES string. Certain results were filed several times, with different values. The list is limited to them. The source may hold further records. Results that share an entry are repeats (runs, samples, wells, individuals or studies). Records carry a tag for their origin. The letters are not those of the source and start again with each entry.

Sequence of UniProt O75030 (O75030 whole entry, looked up): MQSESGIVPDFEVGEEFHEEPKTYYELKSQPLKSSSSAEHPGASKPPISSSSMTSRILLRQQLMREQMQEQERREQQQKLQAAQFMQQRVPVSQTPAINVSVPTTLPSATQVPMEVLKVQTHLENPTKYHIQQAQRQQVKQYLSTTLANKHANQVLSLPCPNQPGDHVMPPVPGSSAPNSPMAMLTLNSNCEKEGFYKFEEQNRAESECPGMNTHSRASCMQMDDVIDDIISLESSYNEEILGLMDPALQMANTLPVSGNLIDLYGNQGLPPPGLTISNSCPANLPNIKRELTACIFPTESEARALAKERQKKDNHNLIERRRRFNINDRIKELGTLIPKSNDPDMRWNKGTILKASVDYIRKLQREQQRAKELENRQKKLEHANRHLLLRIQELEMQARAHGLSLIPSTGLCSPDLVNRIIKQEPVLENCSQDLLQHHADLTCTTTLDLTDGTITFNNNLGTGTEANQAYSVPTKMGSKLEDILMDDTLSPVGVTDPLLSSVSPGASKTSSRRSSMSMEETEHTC

Consider `CN(C)[C@@H]1C(=O)C(C(=O)NCN2CCCC2)=C(O)[C@@]2(O)C(=O)C3=C(O)c4c(O)cccc4[C@@](C)(O)C3CC12` (stereo partly specified), for which the IC50 was 40.3 nM [sample A] and 11.8 nM [sample B] and 977 nM [sample C].

A word on the IC50: it is the concentration at which inhibition is half-maximal. Low values mean higher potency, high ones lower potency.
